According to the supplement of paper PMC3334620:
In all, about 33,000 sequences were measured (“E-score (-0.5 to 0.5)”: median about -0.032, highest 2% from about 0.36 on). Some of the results follow.

Each sequence was assayed against T1, Sko1 (UniProt Q02100) (assay: PBM E-score (8-mer binding enrichment) (E-score (-0.5 to 0.5)); higher = stronger / more preferred TF binding; most listed sequences are background and not binding sites). Conditions: protein concentration: 200 nM; construct: GST-full length.
T1 sequence: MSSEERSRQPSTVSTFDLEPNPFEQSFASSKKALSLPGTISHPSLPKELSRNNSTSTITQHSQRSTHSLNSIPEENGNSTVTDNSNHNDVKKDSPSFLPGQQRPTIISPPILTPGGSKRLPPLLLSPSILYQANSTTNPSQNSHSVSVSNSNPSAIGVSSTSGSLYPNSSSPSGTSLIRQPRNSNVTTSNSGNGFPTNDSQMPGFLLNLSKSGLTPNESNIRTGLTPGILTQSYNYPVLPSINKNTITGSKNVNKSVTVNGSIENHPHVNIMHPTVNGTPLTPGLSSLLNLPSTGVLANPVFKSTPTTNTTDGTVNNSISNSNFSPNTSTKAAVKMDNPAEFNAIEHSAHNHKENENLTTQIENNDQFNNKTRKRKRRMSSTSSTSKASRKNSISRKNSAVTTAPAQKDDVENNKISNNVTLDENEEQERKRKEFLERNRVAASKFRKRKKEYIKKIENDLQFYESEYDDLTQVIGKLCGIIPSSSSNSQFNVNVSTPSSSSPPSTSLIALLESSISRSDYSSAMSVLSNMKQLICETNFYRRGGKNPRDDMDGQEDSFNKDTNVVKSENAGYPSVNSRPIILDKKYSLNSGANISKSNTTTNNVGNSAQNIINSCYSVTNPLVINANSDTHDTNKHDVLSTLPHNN
Summary of the method: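 E-scores (a modified Wilcoxon-Mann-Whitney statistic) were assigned by the Universal PBM Analysis Suite to every ungapped eight-base word pooled with its reverse complement. The input came from universal all-10-mer Agilent arrays made double-stranded by primer extension and probed with GST-tagged yeast transcription factors at about 100-200 nM. Fluorescent anti-GST detected bound protein, and masliner normalised the scans.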

Row | Sequence | PBM E-score
1 | TACCTGAA | 0.143
2 | ACAGACCC | -0.0315
3 | AGTGGATG | -0.131
4 | AACAAGAA | 0.152
5 | AAAGCCCG | -0.215
6 | CTGCGCGC | 0.00015
7 | GTATTACA | 0.328
8 | AACTATCA | 0.151
9 | CGGTGCCA | -0.21
10 | ACGGCCTA | -0.142
11 | AAAGGTGG | -0.0647
12 | TCCGCGCA | 0.12
13 | AGATGGCA | 0.0618
14 | ACCTGAGC | 0.0188
15 | ACGATTAA | 0.109
16 | ACTCAGAT | 0.113
17 | TCTATTCA | 0.142
18 | AGCGGTCA | -0.302
19 | GGCTGACA | -0.00803
20 | CATTCGGC | -0.262
21 | CGTACATA | 0.378
22 | ACGAGAGG | -0.0602
23 | AATACAGA | 0.095
24 | TACTTCTA | 0.177
25 | GCGAATCC | -0.0807

Row | Sequence | PBM E-score
26 | ACCCGACT | -0.157
27 | AAGCCGAG | -0.275
28 | GACGCGAC | 0.0903
29 | GTTTTGTA | 0.262
30 | CTCCCTTC | -0.249
31 | CTCTTGAC | 0.00901
32 | AACGGGTC | -0.383
33 | AGCAAGAT | -0.0644
34 | AAGAGGCC | -0.215
35 | AGCGCCCT | -0.113
36 | GTTCGTGA | -0.0757
37 | AGTACGTA | 0.474
38 | CAAAGTGG | -0.33
39 | GTGACCGA | -0.112
40 | GACCGACC | -0.126
41 | GGTAGACC | -0.224
42 | ACGAAGCG | 0.00775
43 | CTTGCGCC | -0.172
44 | CAGGTCCA | -0.232
45 | ATCGACGA | 0.0268
46 | CCGACTAC | -0.068
47 | CACCACTG | -0.175
48 | CTAGTGAA | -0.0191
49 | ATCCCCAC | -0.0231
50 | CCAGGGAC | -0.144

Row | Sequence | PBM E-score
51 | ATGTCTTC | -0.0255
52 | ACCCAAAC | 0.124
53 | AGCTGCGA | -0.23
54 | GCCATTCA | -0.173
55 | GCTGATGA | 0.187
56 | ATTCTTTG | 0.0805
57 | ATTAAGGA | -0.0102
58 | CACGAGTC | -0.144
59 | CTCTAATC | -0.0586
60 | GACCGGAC | -0.338
61 | CAGCGGAG | -0.21
62 | ACCTTCGC | -0.111
63 | CAACAGCA | -0.129
64 | ATATTGAA | 0.298
65 | AATCATAG | 0.126
66 | CAAACGAG | -0.0831
67 | CAGAACAC | -0.0744
68 | TAACTCTA | -0.0475
69 | GCGCTAGA | -0.0443
70 | TCGCTAGA | -0.0802
71 | TGGCTTAA | 0.0689
72 | AAGGTTCA | -0.1
73 | AGCACAGC | -0.134
74 | AAGAGTAT | -0.155
75 | TTGGCCAA | -0.202

Row | Sequence | PBM E-score
76 | AGGCCGAC | -0.257
77 | CAAATCCC | -0.184
78 | CACAAGAC | -0.0429
79 | AACAGGCT | -0.168
80 | CATATCCA | -0.129
81 | CTGTCCGA | -0.0977
82 | ATGGATCA | -0.194
83 | CCTGTGGC | -0.105
84 | AAGCCTGG | -0.189
85 | AGTTTTAA | 0.0928
86 | AGGCTACG | 0.0926
87 | GCGCGAAA | 0.0946
88 | ACCGAACG | 0.0347
89 | GCTCCCTA | -0.3
90 | CCTAAACG | 0.0295
91 | GCTCGGAA | -0.217
92 | GTAAAAAC | 0.184
93 | AGCTGTGG | -0.296
94 | CTGTTTGA | -0.00062
95 | CGCTGTTC | -0.111
96 | GACTTCGC | 0.0748
97 | CCCTAGAC | -0.0592
98 | AGTCCCTG | -0.259
99 | AATGTAGG | -0.175
100 | CTAATCCA | -0.0327

Row | Sequence | PBM E-score
101 | GAACTATC | 0.0113
102 | CAGAACCG | -0.125
103 | TAGCCCAA | -0.0464
104 | CAACAAAC | 0.0578
105 | GTGCACAC | 0.133
106 | ACACTCTG | -0.123
107 | ATAGCGCG | 0.0665
108 | ACTCTGCG | 0.0343
109 | CCGCCACC | -0.154
110 | GCTTCTCC | -0.281
111 | TTCGCCAA | -0.0834
112 | CTGGTACC | -0.37
113 | CGTCAATA | 0.359
114 | ATGCGGAC | 0.0362
115 | ACAGTGAC | 0.223
116 | CATCGGCG | -0.243
117 | ATTTGGCG | 0.0511
118 | AGACTCGA | -0.207
119 | GGTACCAC | -0.142
120 | ATAGTACC | 0.0243
121 | GCATAAGA | 0.00788
122 | CTCTGGAC | -0.0641
123 | CTCGGCTA | -0.123
124 | AATACCAC | 0.0573
125 | ATTGCCAG | -0.0431

Row | Sequence | PBM E-score
126 | AGCACTGC | -0.0788
127 | AAGTCAGC | 0.0973
128 | ACTGTCCT | -0.107
129 | AATTTCGG | -0.0489
130 | AAATTTTG | 0.161
131 | GGCCCTTA | -0.171
132 | GCAACTCA | -0.00054
133 | AGGGTTCC | -0.333
134 | CCGGCGAC | -0.368
135 | ACAATAAC | 0.214
136 | ACAAAAGG | -0.247
137 | CTGAAGCA | 0.0252
138 | CTACCCAG | -0.222
139 | TAGCCTGA | -0.0768
140 | CCGCATCC | -0.189
141 | CACTTAGG | -0.00845
142 | ATTATAGA | 0.189
143 | CTCTTCGC | 0.0109
144 | CAGGGGAG | -0.266
145 | CGGTTACG | 0.291
146 | ACTTGCCA | -0.162
147 | CTCATAGC | -0.107
148 | ATGTGAGG | -0.0702
149 | AGGGGGAT | -0.271
150 | GAATTTTA | 0.128

Row | Sequence | PBM E-score
151 | ACTAGAAC | 0.0484
152 | ATTTATTC | 0.189
153 | GATCGATA | -0.00557
154 | GGTACATA | 0.062
155 | GAAAACGC | 0.102
156 | CCACAGAA | 0.00404
157 | AATCGCAC | 0.069
158 | AACACGAT | 0.128
159 | ATTGGGTA | 0.0853
160 | GTTTATCA | 0.26
161 | ACGAGTTG | 0.124
162 | ACGCGTTA | 0.222
163 | GGAATGCA | 0.0008
164 | AGAGACTG | -0.282
165 | AGTTAGAT | 0.184
166 | ACCGAGCA | 0.00405
167 | ACTCGCCA | -0.052
168 | ATCACCGC | -0.0856
169 | AACCTCGG | -0.146
170 | GGTTAGAC | -0.158
171 | CTTAGAAA | 0.0338
172 | CTCGCCTC | -0.186
173 | CGCGCGGA | 0.00201
174 | CTGGATAC | -0.145
175 | CTGCTCGC | -0.248

Row | Sequence | PBM E-score
176 | ATTCTGCC | -0.2
177 | TAGCAGGA | -0.236
178 | AAGTTCTG | 0.102
179 | CAGAGACC | -0.106
180 | AATAGAAG | -0.035
181 | GGGCGAAA | 0.0756
182 | AACATGAT | 0.172
183 | CACGAACC | 0.011
184 | AAACACAC | 0.167
185 | AAGCGATC | -0.0345
186 | TAATCCTA | 0.0381
187 | ACCTACAT | 0.0291
188 | CGCAAGAG | -0.00497
189 | GGGGCTAC | -0.175
190 | GGATAGAC | 0.046
191 | ACGGTACT | -0.0493
192 | CATCAACG | 0.19
193 | ACATCACT | 0.337
194 | GATAGGAC | -0.241
195 | GGGTTAGA | -0.118
196 | ACGACATG | 0.356
197 | TGGTACCA | -0.355
198 | CAGCAATC | -0.0896
199 | AAAACCCG | -0.0449
200 | CTATTCAC | 0.0572

Row | Sequence | PBM E-score
201 | CAAGAAGA | -0.0303
202 | AAGAGTGT | -0.0657
203 | GCATTACA | 0.111
204 | CAAAAACC | 0.0308
205 | GCTGGGGA | -0.236
206 | CTCGCACA | -0.0527
207 | CTGACAGC | -0.301
208 | CCAAAGTC | -0.0817
209 | CGTTTTGC | 0.177
210 | ATGTGTCC | 0.00598
211 | GGCTGGAA | -0.198
212 | AACTAAGT | 0.0399
213 | GGCCAAGA | -0.212
214 | CGTGAGAG | -0.119
215 | CCCTGCAG | -0.119
216 | CCTTCACG | 0.126
217 | CTCGATGC | -0.229
218 | GGCTACTA | 0.0535
219 | ACGATCAT | 0.15
